We go through 27 variants from the RNAGym collection of RNA variant scans (doi:10.1101/gad.245936.114).

B1: tRNA (parent)
chain: CUCUCGGUAGCCAAGUUGGUUUAAGGCGCAAGACUUUAAUUUAUCACUACGAAAUCUUGAGAUCGGGCGUUCGACUCGCCCCCGGGAGAUUUUUUCCUCGAGCAA

Variants at the background level are over-represented here. Bounds are passed on as bounds.

The variants in this series derive from B1. The experiment in a line: nonsense suppression (GFP-seq) (ratio to wild type); higher = more function; SUP4oc tRNA, yeast GFP reporter sort-seq. A digest of the protocol: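 Yeast carrying genome-integrated SUP4oc tRNA variants from a library with ~3% random mutations were grown in raffinose/galactose medium with 80 mg/L adenine. Each strain also carried a galactose-driven GFP ochre reporter and RFP. Cells were sorted into GFP/RFP bins, and each bin was Illumina-sequenced (phred ≥30). Nonsense suppression (GFPSEQ) is the bin median GFP/RFP, weighted by each variant's estimated cell share per bin, relative to wild-type SUP4oc; variants needed ≥100 reads and ≥30 cells.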
For CUCUCGGUAGCCAAGAUGGUUUAAGGCGCAAGACUUUAAUUUAUCACUACGAAAUCUUGCGAUUGGGCGUUCGACUCGCCCCCGGGAGAUUUUUUCCUCGAGCAA [U16A A60C C64U], the nonsense suppression is not above 0.026.

Consider CUCUCGGUAGCUGAGUUGGUUCAAGGUGCCAGACUUUAAUUUAUCACUACGAAAUCUUGAGAUCGGGCGUUCGACUCCCCCCCGGGAGAUUUUUUCCUCGAGCAA [C12U A13G U22C C27U A30C G78C], for which the nonsense suppression was not above 0.026.

Regarding CUCUCGGUAGCCAAGUAGGUUUAAGGCGCAAGACUUUAAUUUAUCACUACGAAAUCUUGAGAUCGGGCGUUCGACUCGCCCCCGGGACAUUUUUUCCUCGAGCAA [U17A G88C], the nonsense suppression is not above 0.026.

In the case of CUCUCGGUAGCCAAGUUUGUUUAAGGCGCAAGACUUUAAUUUAUCACUACGAAAUCUUGAGAUCGGGCGUUCGACUGGCCCCCGGGAGGUUUUUUCCUCGAGCAA [G18U C77G A89G], the nonsense suppression was not above 0.026.

As to CUCUCGGUAGCCAAGUUGGUUUAAGGCGCAGCACUUUAAUUUAUCACUACGAAAUCUUGAGAUCGGGCGUUCGACUCGCCCCCGGGAGAUUUUUUCCUCGAGCAA [A31G G32C], the nonsense suppression was not above 0.026.

Regarding CUCUCGGUAGCCAAGUGGGUUUAAGGCGCAAGACUUUAAUUUAUCACUACGAAAUCUUAAGAUCCGGCGUUCGACUCGCCCCCGGGAGAUUUUUUCCUCGAGCAA [U17G G59A G65C], the nonsense suppression is not above 0.026.

As to CUCUCGGUAGCCAAGUUGGUUUAAGGCGCAAGACUUUAAUUUAUCACUACGAAAUCUUGAGAUCGGGCGUUCGAUUCGCCCCCGAGAGAUUUUUUCCUCGAGCAA [C75U G85A], the nonsense suppression worked out at 1.06.

For the variant CUCUCGGUAGCCAAGUUGGUUUACGGCGCAAGACUUUAAUUUAUCACUACGAAAUCUUGAGAUCGGGCGAUCGACUCGCCCCCGGGAGAUUUUUUCCUCGAGCAA [A24C U70A], the nonsense suppression was not above 0.026.

Turning to CUCUCGGUAGCCAAGAUGGUUUACGGCGCAAGACUUUAAUUUAUCACUACGAAAUCUUGAGAUCGGGCGUUCGACUCGCCCCCGGGAGAUUUUUUCCUCGAGCAA [U16A A24C], the nonsense suppression came to 0.872.

Consider CUCUCGGUAGCCAAGUUGGUUUAAGGCGCAAGACUUUAAUUUAUCACUACGAAAUCUUAAGAUCGGGCGUUCGACUCGCCCCCGGGAGAUUUUUUCCUCGAGCAA [G59A], for which the nonsense suppression was not above 0.026.

Take CUCCCGGUAGCCCAGUUGGUUUAUGGCGCAAGACUUUAAUUUAUCACUACGAAAUCUUGAGAUCGGGCGUUCGACUCGCCCCCGGGAGAUUUUUUCCUCGAGCAA [U4C A13C A24U]: the nonsense suppression stood at 0.488.

As for CUCUCGGCAGCCAAGUUGGUUUAAGGCGCAUGACUUUAAUUUAUCACUACGAAAUCUUGAGAGCGGGCGUUCGACUCGCCCCCGGGAUAUUUUUUCCUCGAGCAA [U8C A31U U63G G88U], the nonsense suppression was not above 0.026.

As for CUCUCGGUAGCCAAGUUGUUUUAAGGCGCAAGACUUUAAUUUAUCACUACGAAAUCUUGAGAUCGGGCGAUCGACUCGCACCCGGGAGAUUUUUUCCUCGAGCAA [G19U U70A C80A], the nonsense suppression is not above 0.026.

Take CUCUCGGUAUCCAAGUUGGUUUAUGGCGCAAGACUUUAAUUUAUCACUACGAAAUCUUGAGAUCGGGCGUUCGACUCGCCCCCGGGAGAUUUUUUCCUCGAGCAA [G10U A24U]: the nonsense suppression is not above 0.026.

As to CACUCGGUAGCCAAGUUGGUUUAAGCCGCUAGACUUUAAUUUAUCACUACGAAAUCUUGAGAUCGGGCGUUCGACUCGCCCCCGGGAGAUUUUUUCCUCGAGCAA [U2A G26C A30U], the nonsense suppression was not above 0.026.

As for CUCUCGGUAGCCAAGUUGGUUUAAGGCGUAAGACUUUAAUUUAUCACUACGAACCAUUGAGAUCGGGCGUUCGACUCGCCCCCCGGAGAUUUUUUCCUCGAGCAA [C29U A54C U55C C56A G84C], the nonsense suppression was not above 0.026.

With CUCUCGGUACCCAAGUUGGUUUAACGCGCAAGACUUUAAUUUAUCACUACGAAAUCUUGACAUCGGGCGUACGACUCGCCCCCGGGAGAUUUUUUCCUCGAGCAA [G10C G25C G61C U71A], the nonsense suppression was not above 0.026.

CGCUCGGUAGCCAAGUUGGUUUAAGGCGCAAGACUUUAAUUUAUCACUACGAAAUCUUGAGAUCGGGAGUUCGACUCGCCCCCGGGAGAUUUUUUCCUCGAGCAA [U2G C68A]: the nonsense suppression was not above 0.026.

As for CUCUCGGUAGCCAAGUUGGUUUAAGGCGCAAGACUUUAAUUUAUCACUACGAAAUCUUGACUUCGGGCGUUCGUCUCGCCCCCGGGAAAUUUUUUCCUCGAGCAA [G61C A62U A74U G88A], the nonsense suppression was not above 0.026.

Consider CUCUCGGUAGCCAAGUGUGUUUAAGGCGCAAGACUUUAAUUUAUCACUACGAAAUCUUGAGAUCGGGCGCUCGACUCGCCCCCGGGAGAUUUUUUCCUCGAGCAA [U17G G18U U70C], for which the nonsense suppression was not above 0.026.

In the case of CUCUCGGUAGCCAAGUUGGUUUAAGGCGCAAAACUUUAAUUUAUCACUACGAAAUCCUGAGAUCGGGCGUUCGACUCGCCCCCGGGAGAUUUUUUCCUCGAGCAA [G32A U57C], the nonsense suppression is not above 0.026.

Take CUCCCGGUAGCCAGGUUGGUUUAAGGCGCAAGACUUUAAUUUAUCACUACGAAAUCUUUAGAUCGGGCGUUCGACUCGCCCCCGGGAGAUUUUUUCCUCGAGCAA [U4C A14G G59U]: the nonsense suppression was not above 0.026.

CUCUCGGCAGCCAAGUUGGUUUAAUGCGCAAGACUUUAAUUUAUCACUACGAAAUCUCGAUAUCGGGCGUUCGACUCCCCCCCGGGAGAUUUUUUCCUCGAGCAA [U8C G25U U58C G61U G78C]: the nonsense suppression was not above 0.026.

Take CUCUCGGUAGCCAAGUUGGUUUAAGGCGCAAGACUUUAAUUUAUCACUACGAAAUCUUGAGAUCGUGCGUUCGACCCGCCCCCGGGAGAUUUUUUCCUCGAGCAA [G66U U76C]: the nonsense suppression was not above 0.026.

For the variant CUUAAGGUAGCCAAGUUGGUUUAAGGCGCAAGACUUUAAUUUAUCACUACGAAAUCUUGAGAUCGGGCGUUCGACUCGCCCCCGGGAGAUUUUUUCCUCGAGCAA [C3U U4A C5A], the nonsense suppression was not above 0.026.

As to CUCUCGGUAGCAAAGUUGGUUUAAGGCGCAAGACUUUAAUUUAUCACUACGAAAUCUUGAGAUCGGGCGUUCGUCUCGACCCCGGCAGAUUUUUUCCUCGAGCAA [C12A A74U C79A G86C], the nonsense suppression was not above 0.026.

On to CUUUUGGUAGCCAAGUUGGUUUAAGGCGAAAGACUUUAAUUUAUCACUACGAAAUCUUGAGAUCGGGCGUUCGACUCGCCCCCGGGAGAUUUUUUCCUCGAGCAA [C3U C5U C29A], for which the nonsense suppression was not above 0.026.
